According to the supplement of paper PMC4967469:
By IC50 is meant the dose at which the fit gives 50% viability; a fit beyond the top or the lowest dose is shown as a bound at that dose. AUC, from the same fit, is the share of area under the viability curve across the 256-fold dose range; the more sensitive the line, the further below 1. For part of these data: Any top dose called inferred was derived from the fitted curves, not read from the paper. For part of these data: Where an entry number is given, a second screen of the drug exists; the two often differ.

Key:
Test in all cases: Viability of human cancer cell lines after 72 h of drug (GDSC screen)
[1] = compound: CC/C(=C(\c1ccccc1)c1ccc(OCCN(C)C)cc1)c1ccccc1 [Tamoxifen]; details: top dose 5 µM
Protocol: (§1)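 Human cancer cell lines in 384-well plates, medium with 10% serum, drug for 72 h over a 256-fold dose range (nine 2-fold or five 4-fold steps up to the top dose). Adherent lines were fixed and stained with the nucleic acid dye Syto60, suspension lines read with resazurin; signal relative to control wells, capped at 0 and 100%. One two-parameter sigmoid per drug and line, fitted in a mixed model over all curves with the slope shared within a line.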

[2] = compound: CCCC(=O)OCc1ccc(OC(=O)/C=C(C)/C=C/C=C(C)/C=C/C2=C(C)CCCC2(C)C)cc1 [VNLG/124]; details: top dose 5.12 µM; top dose inferred
Protocol: as §1

[3] = compound: Cc1ccc(NC(=O)c2ccc(CN3CCN(C)CC3)cc2)cc1Nc1nc(-c2cccnc2)cs1 [Masitinib]; details: top dose 20 µM
Protocol: as §1

[4] = compound: O=S(=O)(O)c1ccc2cc(N=Nc3cc(S(=O)(=O)O)c4cccnc4c3O)ccc2c1 [NSC-87877]; details: top dose 16 µM; top dose inferred
Protocol: as §1

[5] = compound: O=C(Nc1cccc(Nc2ncc(Br)c(NCCc3cnc[nH]3)n2)c1)N1CCCC1 [BX-912]; details: top dose 10.24 µM; top dose inferred
Protocol: as §1

[6] = compound: Cc1c(N)nc([C@H](CC(N)=O)NC[C@H](N)C(N)=O)nc1C(=O)N[C@H](C(=O)N[C@H](C)[C@@H](O)[C@H](C)C(=O)N[C@H](C(=O)NCCc1nc(-c2nc(C(=O)NCCC[S+](C)C)cs2)cs1)[C@@H](C)O)[C@@H](OC1OC(CO)C(O)C(O)C1OC1OC(CO)C(O)C(OC(N)=O)C1O)c1cnc[nH]1 [Bleomycin]
Protocol: as §1

[7] = compound: CN(NC(=O)CC(=O)NN(C)C(=S)c1ccccc1)C(=S)c1ccccc1 [Elesclomol]; details: top dose 0.2 µM; top dose inferred
Protocol: as §1

[8] = compound: O=C(Nc1ccc(OC(F)(F)F)cc1)c1sccc1NCc1ccnc2ccccc12 [OSI-930]; details: top dose 10.24 µM
Protocol: as §1

[9] = compound: COc1cc(N2CCC(C(N)=O)CC2)ccc1Nc1nc(N)c(Cl)c(Nc2ccccc2S(=O)(=O)C(C)C)n1 [HG-5-88-01]; details: top dose 10 µM; top dose inferred
Protocol: as §1

[10] = compound: O=C(/C=C/c1ccc(CN(CCO)CCc2c[nH]c3ccccc23)cc1)NO [LAQ824]; details: top dose 1.024 µM; top dose inferred
Protocol: as §1

[11] = top dose 50 µM, screen: GDSC drug entry 1378, top dose inferred
[12] = top dose 64 µM, screen: GDSC drug entry 190

Cell Line	AUC [1]	IC50 [1] [µM]	AUC [2]	IC50 [2] [µM]	AUC [3]	IC50 [3] [µM]	AUC [4]	IC50 [4] [µM]	AUC [5]	IC50 [5] [µM]	AUC [6, 11]	IC50 [6, 11] [µM]	AUC [7]	IC50 [7] [µM]	AUC [8]	IC50 [8] [µM]	AUC [9]	IC50 [9] [µM]	AUC [6, 12]	IC50 [6, 12] [µM]	AUC [10]	IC50 [10] [µM]
D-247MG (glioma, adherent)	0.977	> 5	0.979	> 5.12	0.448	0.858	0.969	> 16	0.778	5.8	0.598	6.4	0.612	0.0285	0.842	> 10.2	0.922	> 10				
NCI-H630 (large intestine, adherent)	0.987	> 5	0.987	> 5.12	0.906	> 20	0.95	> 16	0.96	> 10.2	0.897	> 50	0.974	> 0.2	0.96	> 10.2	0.91	> 10				
RL95-2 (endometrium, adherent)	0.986	> 5	0.94	> 5.12	0.976	> 20	0.981	> 16	0.987	> 10.2	0.694	10.9	0.699	0.045	0.972	> 10.2	0.966	> 10				
PL4 (pancreas, adherent)	0.985	> 5	0.987	> 5.12	0.986	> 20			0.954	> 10.2	0.408	1.73	0.787	0.0904	0.971	> 10.2	0.832	6.72	0.674	12.4	0.486	0.0585
KYAE-1 (oesophagus, suspension)	0.937	> 5	0.955	> 5.12	0.819	13			0.952	> 10.2	0.953	> 50	0.888	> 0.2	0.979	> 10.2	0.883	> 10				
CADO-ES1 (Ewing sarcoma, suspension)	0.984	> 5	0.943	> 5.12	0.901	> 20			0.951	> 10.2	0.661	8.83	0.608	0.025	0.987	> 10.2	0.979	> 10				
JHOS-3 (ovary, adherent)	0.981	> 5	0.959	> 5.12	0.965	> 20			0.976	> 10.2	0.865	> 50	0.893	> 0.2	0.983	> 10.2	0.844	> 10				
A2780 (ovary, semi-adherent)	0.977	> 5	0.975	> 5.12	0.84	14.5	0.967	> 16	0.461	0.499	0.826	31.8	0.402	0.00665	0.897	> 10.2	0.983	> 10	0.149	0.309		
EMC-BAC-2 (lung adenocarcinoma, adherent)	0.963	> 5	0.981	> 5.12	0.922	> 20			0.764	4.4	0.55	4.38	0.458	0.00939	0.982	> 10.2	0.909	> 10				
EMC-BAC-1 (lung adenocarcinoma, adherent)	0.982	> 5	0.946	> 5.12	0.879	> 20			0.665	1.98	0.662	9.44	0.519	0.0142	0.955	> 10.2	0.718	2.86				
SNU-407 (large intestine, adherent)	0.981	> 5	0.976	> 5.12	0.843	17.8			0.916	> 10.2	0.592	5.83	0.616	0.0277	0.958	> 10.2	0.898	> 10				
RCC-ER (kidney, adherent)	0.959	> 5	0.961	> 5.12	0.875	> 20			0.961	> 10.2	0.744	17.3	0.551	0.0175	0.975	> 10.2	0.897	> 10				
D-336MG (glioma, adherent)	0.945	> 5	0.885	> 5.12	0.904	> 20	0.981	> 16	0.782	5.64	0.743	19.3	0.583	0.0224	0.967	> 10.2	0.904	> 10				
ESO51 (oesophagus, semi-adherent)	0.962	> 5	0.98	> 5.12	0.886	> 20			0.963	> 10.2	0.849	> 50	0.843	> 0.2	0.967	> 10.2	0.974	> 10				
